Results published in the supplement of paper PMC3334620.
The full ranking holds about 33,000 sequences; the median of “E-score (-0.5 to 0.5)” is about -0.035, and the highest 2% start at about 0.35. The list shows a part of the results.

molecular target: T1, Pdr3 (UniProt P33200); assay: PBM E-score (8-mer binding enrichment) (E-score (-0.5 to 0.5)); higher = stronger / more preferred TF binding; most listed sequences are background and not binding sites; conditions: protein concentration: 200 nM; construct: GST-full length
T1 sequence: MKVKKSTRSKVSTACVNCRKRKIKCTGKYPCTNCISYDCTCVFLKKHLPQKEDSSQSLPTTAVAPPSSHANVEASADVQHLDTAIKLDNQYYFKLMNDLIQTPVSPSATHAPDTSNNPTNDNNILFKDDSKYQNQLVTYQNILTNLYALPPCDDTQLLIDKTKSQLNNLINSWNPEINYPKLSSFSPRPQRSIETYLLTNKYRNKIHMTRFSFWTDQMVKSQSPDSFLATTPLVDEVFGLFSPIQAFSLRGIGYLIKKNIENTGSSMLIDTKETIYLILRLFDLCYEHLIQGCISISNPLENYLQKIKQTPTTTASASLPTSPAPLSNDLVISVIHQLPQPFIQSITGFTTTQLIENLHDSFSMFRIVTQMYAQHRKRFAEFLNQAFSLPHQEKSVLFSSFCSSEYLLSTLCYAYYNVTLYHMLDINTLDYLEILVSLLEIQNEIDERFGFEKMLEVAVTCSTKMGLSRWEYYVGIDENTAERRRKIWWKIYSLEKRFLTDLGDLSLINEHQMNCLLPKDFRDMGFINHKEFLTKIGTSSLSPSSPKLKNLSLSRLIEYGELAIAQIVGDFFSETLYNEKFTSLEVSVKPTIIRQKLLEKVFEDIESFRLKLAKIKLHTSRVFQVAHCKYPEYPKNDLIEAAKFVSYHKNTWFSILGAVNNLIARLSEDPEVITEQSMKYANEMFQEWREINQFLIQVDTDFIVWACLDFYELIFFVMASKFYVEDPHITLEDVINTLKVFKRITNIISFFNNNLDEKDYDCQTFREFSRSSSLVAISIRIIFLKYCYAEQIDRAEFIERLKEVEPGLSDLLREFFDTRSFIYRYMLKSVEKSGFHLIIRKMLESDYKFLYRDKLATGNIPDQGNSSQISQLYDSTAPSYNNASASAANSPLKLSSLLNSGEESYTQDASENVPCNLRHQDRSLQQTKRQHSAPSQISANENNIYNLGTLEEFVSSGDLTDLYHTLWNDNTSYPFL
How it was run: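 E-scores (a modified Wilcoxon-Mann-Whitney statistic) were assigned by the Universal PBM Analysis Suite to every ungapped eight-base word pooled with its reverse complement. The input came from universal all-10-mer Agilent arrays made double-stranded by primer extension and probed with GST-tagged yeast transcription factors at about 100-200 nM. Fluorescent anti-GST detected bound protein, and masliner normalised the scans.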

Sequence	PBM E-score
CGGACCCC	0.198
ACATCAGC	0.0189
GGACAAAC	0.0155
ATCAATGC	0.131
AACATCCA	-0.0276
GAAAAGGA	0.0166
ATAGCCAG	-0.222
AATAACAC	0.149
GACCAAGC	-0.117
AAACCCAG	-0.171
ACATCAAC	0.13
CCACCAAG	-0.134
ATGGAAAA	0.0967
ACCTCCAA	-0.187
ACGGGTCA	0.0219
CCTGATCG	-0.0324
TCCTGCCA	-0.148
GAGCTAAA	-0.136
AAATTGAT	0.103
ATTTGTGA	-0.153
AGGGACCT	-0.108
ATGATCTG	-0.0589
AAATACAT	-0.171
ACAACTGC	-0.0933
CCAAAGTA	-0.0672

Sequence	PBM E-score
AGGCTGAG	-0.279
CAAACCAC	-0.0587
ACATCAAT	-0.0619
GAAGTTAA	-0.118
CAACATCC	0.118
CGACAAGC	0.00105
CGCTGTGC	0.223
CCGGGAGC	0.306
GAGTCAGA	-0.0205
AACTCCGA	0.281
ACTAACAG	-0.0121
CCAATTAA	-0.0101
AAAAACGG	0.236
AGTGTTAA	-0.00935
AGAGGAAA	0.0754
CTGTAGAA	-0.0542
AGGACAAT	-0.0605
ATGCATTA	0.0435
GATAGCAA	-0.0468
ACTGAGCC	0.0738
CCGTTATA	0.113
ACACAGAG	-0.0916
AGTCTGAA	-0.303
ACGCCTTG	-0.11
AAAGCTTT	0.00459

Sequence	PBM E-score
AAAACAGT	0.124
ACAGCCCG	0.0226
ATAGTCTC	-0.0152
AGTACGGA	0.34
ACTCAGAC	-0.0975
CAATAAAA	-0.0487
CCGGCTGC	0.338
AATCTCTG	-0.185
AGAGAGAA	-0.131
AAAAGGCC	-0.162
CTGATGGA	-0.0342
CCTTGTGA	-0.0319
CGCTGCCC	0.13
CGGTTTCA	0.0642
CAAGGTGG	-0.004
CACAACGA	0.048
CAGTGCCG	0.211
GCAGATTA	-0.00313
AATTATTC	0.0849
CGGGGTAG	0.104
AGCTAAGG	-0.302
ACCACCAC	-0.0652
AGAAATTC	0.144
AAATCGCA	-0.057
GGAGAACA	0.0583

Sequence	PBM E-score
CAAACCTG	-0.189
CTAGCAAG	-0.231
CAGAGAGA	-0.158
ATAACTGG	0.00308
GAAGGAGA	-0.0949
AAATCCAA	-0.0251
ATGGAGGA	-0.0755
CTGAGCGA	0.0338
AGGGCGCA	-0.171
GAGGCCTA	-0.0661
CACGTATC	-0.0525
CAGGGTCA	-0.214
ACAATCCG	0.281
GGTAAAAC	-0.0483
GACGCAGA	0.0657
GAGTTAAA	-0.0808
GGAAGGAC	0.154
CATAGATG	-0.115
GGAGAGCA	-0.148
GAGGGCGC	-0.0611
ACCCACAC	0.0107
GGGCGCTA	-0.106
ATCCCAAG	0.0333
CGTCCAAG	0.0264
ATCTTATC	0.0533

Sequence	PBM E-score
TGTCTAAA	-0.161
CCTGGGTC	-0.137
AGTTGATG	-0.136
AAGTACAG	-0.302
ATCTGAAG	-0.174
AATCGTTC	-0.0216
AAATTGCT	-0.123
CGCAGCAA	-0.145
AGAGGCTC	-0.117
CATTAATG	-0.0586
CCACAGTA	-0.0843
ACGGGCAG	0.201
ATTTGTTA	0.0711
GAGATTAA	0.0377
CGAGCGGA	0.359
CAGTAATA	-0.068
CAATGCAC	-0.00477
GGGACTAC	0.0182
CTTGGTAC	-0.0971
AATATGCC	0.0396
CTTTTCAC	-0.0828
CTGATTAA	0.126
AAATTACC	-0.0477
AGAGTAGC	-0.228
GAGAAAAC	-0.0343

Sequence	PBM E-score
AAAAAAAT	0.115
TGGTAACA	-0.0779
GAAAACGA	-0.097
CTCAGAGC	-0.218
ATAACCGG	0.182
AGACTATG	-0.189
ATGAGTTC	0.0846
GTATTATA	0.2
AATATAGT	0.11
ATATGAAA	0.06
ATAATTGG	0.00159
TATCAGAA	0.0746
CTGCAGTC	-0.232
TCCGACCA	0.272
CAACACTA	0.00928
AACACATT	0.117
AGTTGTCG	0.0287
GAAATGGA	-0.0765
ACTATGCT	-0.08
AACTCGGG	0.184
AGATGTCG	0.167
ACCCGCGA	0.0513
CATGGTCG	-0.00458
GGCAACCC	0.0929
AGGCGGCA	-0.0661

Sequence	PBM E-score
CCTAAGAC	-0.316
GAGCAGAA	0.00292
CGCGCCTA	0.12
ACTTGGAT	0.0704
GGATAGGA	0.0524
TGAGTAAA	-0.168
ACAAGGCG	0.0405
TCGCGCAA	0.0429
TTAAATAA	0.0779
CGTGGAGC	0.169
CAGGAATG	-0.178
ATCCGTAA	0.281
ATGCATCC	0.0555
GAATCCTA	0.0163
CCTGCACA	-0.222
ATGCATAA	-0.218
CCCGGTAC	0.233
CTTGGTGC	-0.191
CATTCATA	0.173
ACCCTAAG	-0.11
AAAGCCTA	-0.325
TCTCTTCA	0.00694
